This note sets out measurements from PMC6212790.

The list shows a part of the results. At the low end of the ranking the order means little.

This experiment has as its target T1, GST-Rok-C97-191 (UniProt O34857).
T1 sequence: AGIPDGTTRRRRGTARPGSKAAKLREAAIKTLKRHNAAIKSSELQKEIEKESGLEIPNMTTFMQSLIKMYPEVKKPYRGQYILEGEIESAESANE
Kind of experiment: protein binding microarray.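 Further: rank score from −0.5 (least bound) to 0.5 (best bound).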 To be noted: Rok is a gene silencer of Bacillus subtilis; high values mean tight binding; most listed sequences are background and not binding sites; double strand, one strand shown.
Turning to AGCTAAGC, the binding signal is -0.0319 E-score.

The sequence CCAAGTGG came in with a binding signal of -0.13 E-score.

Sequence ACATTAGA returned a binding signal of 0.19 E-score.

As for ATTCCATC, the binding signal worked out at 0.157 E-score.

GTGGAAAC gave a binding signal of -0.0423 E-score.

ATCACTCG: the binding signal stood at 0.0113 E-score.

The sequence CGAGGCAC registered a binding signal of -0.157 E-score.

For the sequence CTGGCTCC, the binding signal is -0.351 E-score.

Consider AAGGTTGA, for which the binding signal was determined as 0.063 E-score.

Sequence AGTCCGAA came in with a binding signal of -0.0979 E-score.

AACATAAT: the binding signal was 0.1 E-score.

On to AATAAGAT, for which the binding signal came to 0.266 E-score.

For GTGTTTGA, the binding signal is -0.0225 E-score.

Sequence CCAAAACC displayed a binding signal of -0.308 E-score.

Turning to ACACTACA, the binding signal was 0.294 E-score.

Sequence CACACCTA came in with a binding signal of 0.192 E-score.

Consider TCATAAGA, for which the binding signal worked out at 0.15 E-score.

As to AATAGATT, the binding signal was 0.352 E-score.

As to ACGATGGC, the binding signal was -0.15 E-score.

The sequence AATACAGG came in with a binding signal of -0.0587 E-score.

Take AGGATTTA: the binding signal worked out at 0.0283 E-score.

In turn, AACCACGG came in with a binding signal of 0.0533 E-score.

Take AGTGGTTC: the binding signal is -0.175 E-score.

CGATTATA: the binding signal was determined as 0.261 E-score.

Sequence AGCTGCTC yielded a binding signal of -0.115 E-score.

Sequence ACGCCAAG gave a binding signal of 0.0306 E-score.

Sequence GTACGGAA yielded a binding signal of 0.197 E-score.

For the sequence AGAAGCCG, the binding signal is 0.0948 E-score.

Regarding ACGTCGTC, the binding signal is -0.278 E-score.

As for GACTTTAC, the binding signal is -0.0515 E-score.

ATGGGACC had a binding signal of -0.223 E-score.

As to CTCATCGC, the binding signal was -0.091 E-score.

GAAATCGA returned a binding signal of -0.114 E-score.

Sequence ACAGATAG registered a binding signal of 0.225 E-score.

In the case of ATTTACAC, the binding signal is 0.181 E-score.

AAACTAGT had a binding signal of 0.445 E-score.

With ATACCGGC, the binding signal was 0.118 E-score.

In turn, AACATTGA returned a binding signal of 0.0527 E-score.

For ATTGGTTC, the binding signal was -0.162 E-score.

In turn, AGAAGTAC gave a binding signal of 0.229 E-score.

With ATTTTGGA, the binding signal came out at 0.171 E-score.

Turning to AAGAGTAT, the binding signal was determined as 0.0968 E-score.

As for CCCGACAA, the binding signal is -0.322 E-score.

For the sequence AAATCACG, the binding signal turned out to be 0.17 E-score.

AAATGCAG gave a binding signal of -0.0786 E-score.

As to ATGATTAC, the binding signal was 0.0172 E-score.

GGAACGAA registered a binding signal of -0.126 E-score.

Take CGGGCCCA: the binding signal was -0.227 E-score.

As to CGACCACA, the binding signal is -0.0849 E-score.

In the case of AACCATAC, the binding signal amounted to 0.0656 E-score.

CGGCTGCA displayed a binding signal of -0.263 E-score.

As to AGCAGCCC, the binding signal is -0.221 E-score.

On to CGACTAAC, for which the binding signal was determined as 0.0924 E-score.

AAGGTATG yielded a binding signal of -0.00079 E-score.

AGGCAATC gave a binding signal of -0.0559 E-score.

With ATAGATTG, the binding signal turned out to be 0.304 E-score.

Sequence ACGATAAC gave a binding signal of 0.171 E-score.

ATCGAGTG displayed a binding signal of 0.174 E-score.

CTCTCTCC gave a binding signal of -0.0487 E-score.

In turn, CCCAGGAA returned a binding signal of 0.0625 E-score.

The sequence ATCTGCGC showed a binding signal of -0.0285 E-score.

In turn, CAGGTCAG had a binding signal of -0.0505 E-score.

Sequence AAGCTAGT returned a binding signal of 0.281 E-score.

In turn, CAGTTAGC registered a binding signal of -0.0251 E-score.

TACATTCA returned a binding signal of 0.212 E-score.

Regarding AGATCACG, the binding signal is -0.00769 E-score.

ACCCCGCA came in with a binding signal of -0.265 E-score.

Sequence AGACTGCA registered a binding signal of -0.0933 E-score.

With GCGCGATA, the binding signal came out at 0.18 E-score.

In turn, GGAAACGA came in with a binding signal of -0.239 E-score.

In the case of CGTGCGCA, the binding signal is -0.203 E-score.

AGTTCGAA: the binding signal stood at 0.126 E-score.

For the sequence AGGTCGAA, the binding signal was -0.235 E-score.

In the case of AATTTTCG, the binding signal was 0.0664 E-score.

CTAGGCTA registered a binding signal of -0.0639 E-score.

Take ATAAGGTG: the binding signal is -0.0756 E-score.

In turn, CGAGTTCA yielded a binding signal of 0.0768 E-score.

The sequence GCCTTGGA came in with a binding signal of -0.192 E-score.

Sequence AATGGATA yielded a binding signal of 0.106 E-score.

GCGACCTA returned a binding signal of -0.0775 E-score.

GGTATGCA registered a binding signal of 0.109 E-score.

For CACGTCTA, the binding signal is -0.179 E-score.

GCCCAACC: the binding signal was -0.238 E-score.

As for CCTCAGCC, the binding signal is -0.314 E-score.

Take GGGTATGA: the binding signal amounted to 0.0974 E-score.

For the sequence AGATAGCC, the binding signal was determined as 0.0439 E-score.

For GAAACTCC, the binding signal came out at 0.0382 E-score.

As to ACTAACAG, the binding signal was 0.158 E-score.

ACTGGAAC yielded a binding signal of 0.0447 E-score.

For ATCTTCCA, the binding signal was -0.0718 E-score.

Consider CTACCTAC, for which the binding signal worked out at 0.376 E-score.

As to GAACGTAA, the binding signal was -0.0744 E-score.

The sequence CCACAGAA yielded a binding signal of 0.0912 E-score.

CTGAATCA: the binding signal is -0.0426 E-score.

On to GAGTGGTA, for which the binding signal was found to be 0.208 E-score.

In turn, AATGGAAG had a binding signal of -0.192 E-score.

ACGCCCGT had a binding signal of -0.183 E-score.

Sequence ACGAACTA returned a binding signal of 0.311 E-score.

Sequence AACACAGA gave a binding signal of 0.0193 E-score.

ACTAGAGG came in with a binding signal of -0.0699 E-score.

Turning to GGTACTAC, the binding signal is 0.233 E-score.

Sequence CTCGGGGC had a binding signal of 0.0371 E-score.

With CAATACTC, the binding signal is 0.0112 E-score.

As to AGCCGCAC, the binding signal was -0.188 E-score.

CCTCGTAA came in with a binding signal of 0.124 E-score.

Sequence ATTGACCC came in with a binding signal of -0.177 E-score.

For CAACTCAG, the binding signal was 0.0532 E-score.

In turn, ACTAGAGA returned a binding signal of 0.118 E-score.

With ATTGCATG, the binding signal came out at 0.0708 E-score.

Turning to TATTATAA, the binding signal was 0.25 E-score.

GGAGCGGA returned a binding signal of -0.311 E-score.

For the sequence GCGCTTTA, the binding signal was -0.161 E-score.

TGGTTTAA registered a binding signal of 0.0508 E-score.

On to CCGAGCTA, for which the binding signal was -0.103 E-score.

As for GCGAGAAC, the binding signal was 0.0535 E-score.

CAGGTTCC yielded a binding signal of -0.263 E-score.

Regarding GAGGATCC, the binding signal was -0.139 E-score.

As for ACAGGTCC, the binding signal was -0.273 E-score.

CGAAGTCC returned a binding signal of -0.0993 E-score.

As to AAGGATGG, the binding signal was -0.0809 E-score.

Turning to ATGCGATG, the binding signal worked out at 0.141 E-score.

In the case of CAACATTA, the binding signal was determined as 0.0981 E-score.

As to CGGCAGTA, the binding signal was -0.0135 E-score.

AAGATCGC came in with a binding signal of 0.0308 E-score.

In turn, GTCACTGA came in with a binding signal of -0.074 E-score.

Sequence GGATTAGA registered a binding signal of 0.105 E-score.

With AGACTAAT, the binding signal stood at 0.161 E-score.

As for CCATACGG, the binding signal was -0.0882 E-score.

As to GAATCGTC, the binding signal was found to be 0.057 E-score.

As for TCACCCAA, the binding signal was found to be 0.191 E-score.

Regarding AGGCGCGA, the binding signal was -0.181 E-score.

Consider ATTGGACG, for which the binding signal is 0.174 E-score.

With GGACGTAA, the binding signal was found to be 0.000609 E-score.

As for GTGCGGGA, the binding signal is -0.196 E-score.

In turn, ATAGCGAC showed a binding signal of -0.0927 E-score.

For the sequence CCGGTGCG, the binding signal was -0.262 E-score.

AAGGTGAA: the binding signal was -0.151 E-score.

On to GGTTTCGA, for which the binding signal was -0.0944 E-score.

On to CTTCCCAA, for which the binding signal was -0.295 E-score.

Consider AGTAGGGG, for which the binding signal is -0.0784 E-score.

Consider ATGGTCTA, for which the binding signal is 0.0944 E-score.

With GACGAGAA, the binding signal was -0.192 E-score.

Sequence CAGGATGA registered a binding signal of -0.017 E-score.

Regarding GAGAGGAA, the binding signal was -0.0944 E-score.

Consider CAACATTG, for which the binding signal is -0.0666 E-score.

As for TATGAATA, the binding signal is 0.167 E-score.

CTTTATAA displayed a binding signal of 0.0683 E-score.

GCCGGAGC came in with a binding signal of -0.201 E-score.

Take AAGGAAGC: the binding signal is -0.125 E-score.

In the case of ACTGTTAC, the binding signal is 0.156 E-score.

The sequence CGATAAAC showed a binding signal of 0.0566 E-score.

On to ACTTAACG, for which the binding signal is -0.0495 E-score.

Regarding GGTACTCA, the binding signal was found to be 0.0516 E-score.

Regarding CCTCGGCA, the binding signal was -0.341 E-score.

Take CACAAATG: the binding signal is -0.108 E-score.

As to AAACTTCG, the binding signal was -0.00372 E-score.

As for GCAACCAA, the binding signal turned out to be 0.00758 E-score.

As to AGAAGTCA, the binding signal was 0.0184 E-score.

GCCCCCGA registered a binding signal of -0.23 E-score.

As to CCAGCTGA, the binding signal was -0.181 E-score.

GGCCCCGA: the binding signal is -0.245 E-score.

The sequence AAGACGGT returned a binding signal of -0.0446 E-score.

Sequence CGCGGGTA returned a binding signal of -0.0716 E-score.

ATGAGAAC returned a binding signal of 0.00403 E-score.

Sequence ATCGTTGC displayed a binding signal of 0.0841 E-score.

With ATGCTATA, the binding signal was 0.35 E-score.

Sequence ATCCTAAA yielded a binding signal of 0.00116 E-score.

GGCCTCGA displayed a binding signal of -0.191 E-score.

As to AATAGATA, the binding signal turned out to be 0.32 E-score.

In turn, AATGTTGC had a binding signal of -0.0243 E-score.

As to CACTACCA, the binding signal was found to be 0.0866 E-score.

TCCTACGA: the binding signal turned out to be 0.0386 E-score.
